# From PubChem BioAssay AID504333 (National Center for Advancing Translational Sciences (NCATS), 2011)
# The whole screen tested about 360,000 compounds, of which about 16,000 (4.4%) were called active. Inconclusive results, whose numbers are uncertain, are shown with a selection of clear calls. The call rests on the fitted dose curve; in most records, active means well fitted inhibition curve with a large enough effect; inconclusive means small, poorly fitted or top-dose-only effect; inactive means no such curve, though single readings can be large or run the other way. Potencies of inconclusive entries are doubtful fits and often do not repeat.
# Biological target: Bromodomain adjacent to zinc finger domain protein 2B (Homo sapiens) (UniProt Q9UIF8)
# Test: qHTS Assay for Inhibitors of BAZ2B; further: nearly all actives have a fitted effect of over 60% in size
# Settings: AlphaScreen BAZ2B-H3K14Ac peptide displacement; series mostly up to 114 µM
# How it was run: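 Complex of BAZ2B and biotin-H3K14Ac (50 nM apiece) forms over 30 min at RT, then faces library compounds up to 110 uM for another 30 min; AlphaScreen beads added, 20 min dark incubation, luminescence read.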
# Potency means the concentration at half of the fitted maximal effect; tags describe the fitted curve by direction and shape.
# UniProt Q9UIF8, sequence (Q9UIF8 whole entry, looked up, the tested form may be a part): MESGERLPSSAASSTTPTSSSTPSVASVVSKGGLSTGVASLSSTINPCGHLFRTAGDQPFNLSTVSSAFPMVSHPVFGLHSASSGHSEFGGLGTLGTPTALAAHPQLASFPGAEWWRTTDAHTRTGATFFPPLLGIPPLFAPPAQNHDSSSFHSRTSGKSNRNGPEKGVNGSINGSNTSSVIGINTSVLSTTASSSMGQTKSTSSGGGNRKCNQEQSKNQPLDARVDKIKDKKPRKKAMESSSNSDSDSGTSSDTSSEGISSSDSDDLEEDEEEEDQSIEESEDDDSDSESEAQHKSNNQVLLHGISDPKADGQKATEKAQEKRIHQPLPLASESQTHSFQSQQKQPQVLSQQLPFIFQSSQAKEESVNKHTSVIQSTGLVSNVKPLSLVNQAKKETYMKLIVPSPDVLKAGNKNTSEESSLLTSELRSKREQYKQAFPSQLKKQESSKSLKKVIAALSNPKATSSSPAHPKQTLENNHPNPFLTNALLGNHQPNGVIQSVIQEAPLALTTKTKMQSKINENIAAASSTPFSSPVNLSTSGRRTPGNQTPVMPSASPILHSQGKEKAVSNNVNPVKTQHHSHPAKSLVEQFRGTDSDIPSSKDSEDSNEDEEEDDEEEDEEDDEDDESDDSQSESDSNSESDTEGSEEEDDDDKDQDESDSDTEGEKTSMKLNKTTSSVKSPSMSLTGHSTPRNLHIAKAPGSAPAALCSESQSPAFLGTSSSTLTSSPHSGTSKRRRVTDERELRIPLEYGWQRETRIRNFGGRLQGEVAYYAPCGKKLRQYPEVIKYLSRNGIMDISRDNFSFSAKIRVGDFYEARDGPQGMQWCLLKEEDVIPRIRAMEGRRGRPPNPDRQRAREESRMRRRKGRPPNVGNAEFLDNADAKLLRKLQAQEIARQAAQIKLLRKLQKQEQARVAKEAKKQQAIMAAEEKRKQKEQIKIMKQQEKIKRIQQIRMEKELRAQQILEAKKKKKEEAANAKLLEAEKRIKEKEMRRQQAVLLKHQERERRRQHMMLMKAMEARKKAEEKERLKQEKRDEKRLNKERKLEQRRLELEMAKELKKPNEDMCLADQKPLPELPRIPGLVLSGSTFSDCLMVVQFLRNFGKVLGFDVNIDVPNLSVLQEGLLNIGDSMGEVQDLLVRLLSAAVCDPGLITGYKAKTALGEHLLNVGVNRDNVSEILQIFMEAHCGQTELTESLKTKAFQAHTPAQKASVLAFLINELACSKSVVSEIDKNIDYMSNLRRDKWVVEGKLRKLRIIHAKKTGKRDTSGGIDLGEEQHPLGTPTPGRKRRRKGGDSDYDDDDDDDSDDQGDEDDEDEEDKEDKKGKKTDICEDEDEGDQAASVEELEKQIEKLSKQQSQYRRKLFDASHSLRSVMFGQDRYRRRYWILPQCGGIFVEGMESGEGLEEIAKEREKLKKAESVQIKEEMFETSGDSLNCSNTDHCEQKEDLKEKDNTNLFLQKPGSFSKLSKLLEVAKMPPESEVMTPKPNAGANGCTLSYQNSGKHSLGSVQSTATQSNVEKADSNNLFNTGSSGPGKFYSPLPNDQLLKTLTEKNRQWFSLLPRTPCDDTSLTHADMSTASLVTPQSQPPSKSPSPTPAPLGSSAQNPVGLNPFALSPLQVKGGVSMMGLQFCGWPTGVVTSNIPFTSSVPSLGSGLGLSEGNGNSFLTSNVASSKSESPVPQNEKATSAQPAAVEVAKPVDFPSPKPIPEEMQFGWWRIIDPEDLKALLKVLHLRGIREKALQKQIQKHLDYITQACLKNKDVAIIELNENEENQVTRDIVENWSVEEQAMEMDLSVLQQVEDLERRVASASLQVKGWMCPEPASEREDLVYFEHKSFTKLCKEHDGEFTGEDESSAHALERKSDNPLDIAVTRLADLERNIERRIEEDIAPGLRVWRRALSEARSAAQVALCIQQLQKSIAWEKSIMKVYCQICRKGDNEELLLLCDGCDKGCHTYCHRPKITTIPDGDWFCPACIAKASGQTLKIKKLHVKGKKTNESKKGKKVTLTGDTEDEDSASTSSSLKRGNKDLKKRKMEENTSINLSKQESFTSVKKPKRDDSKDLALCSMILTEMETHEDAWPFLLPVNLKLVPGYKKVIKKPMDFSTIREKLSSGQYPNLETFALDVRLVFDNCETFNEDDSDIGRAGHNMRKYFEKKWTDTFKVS
row,SMILES,Potency
1,CCN(CC)c1ccc(C2C(C(=O)OCCOC)=C(C)NC3=C2C(=O)CC(C)(C)C3)cc1 (configuration not stated),"inconclusive: 89.1 µM [inhibitor, single point]"
2,CC(C)(C)c1ccc(O)c(N)c1,"inconclusive: 50.1 µM [inhibitor, partial curve]"
3,C/C(CC1CC(C)(C)OC1=O)=N\NC(N)=S (configuration not stated),"inconclusive: 79.4 µM [inhibitor, partial curve]"
4,Cc1ccc(C(=O)O)cc1NC(=O)c1ccc2c(c1)C(=O)N(c1ccc([N+](=O)[O-])cc1)C2=O,"inconclusive: 89.1 µM [inhibitor, single point]"
5,CCn1c(CN2CCN(Cc3ccc(C)cc3)C(CCO)C2)nc2ccccc21 (configuration not stated),inactive
6,O=C(NCCN1CCN(C(=O)c2c(F)cccc2F)CC1)C(=O)Nc1ccc(Cl)cc1,inactive
7,CC1Cc2ccccc2N1C(=S)NC(=O)C1(C)CC1(Cl)Cl (configuration not stated),inactive
8,COC(=O)c1cc(N2C(=O)C3C(C2=O)C2(C)C=CC3(C)O2)ccc1Cl (configuration not stated),"inconclusive: 89.1 µM [inhibitor, single point]"
9,COc1cccc(-n2c(CN3CCN(c4ccccn4)CC3)nc3ccc([N+](=O)[O-])cc3c2=O)c1,active: 56.2 µM
10,C/C(=N\NC(=O)c1cccc(N/N=C(\C)c2cc(O)ccc2O)c1)c1cc(O)ccc1O,active: 11.2 µM
11,CCc1ccc(Nc2n[n+](C)c(-c3ccncc3)s2)cc1,active: 56.2 µM
12,CCCCN(CC)S(=O)(=O)c1ccc(C(=O)Nc2nnc(COC)o2)cc1,"inconclusive: 89.1 µM [inhibitor, single point]"
13,Cc1cc(-c2cccnc2)c(C#N)c(SCC#N)n1,inactive
14,CC1=CC(C)(C)n2c(O)c(N=N)c3c(C)c(C)cc1c32,active: 35.5 µM
15,COc1cccc(C(=O)NCC(=O)OCc2cc(=O)n3nc(C)sc3n2)c1,inactive
16,CCc1ccc(CNc2ccc(O)cc2)cc1,active: 39.8 µM
17,S=c1[nH]nc(CSCc2ccc(Cl)cc2Cl)n1-c1ccccc1,"inconclusive: 50.1 µM [inhibitor, partial curve]"
18,COc1ccc(NC(=O)[C@H](C)NC(=O)C2CCN(S(=O)(=O)c3ccc(C)cc3)CC2)cc1,inactive
19,Cc1ccc(OCC(=O)NNC(=O)c2ccoc2C)c(Br)c1,"inconclusive: 89.1 µM [inhibitor, partial curve]"
20,Cc1noc(C)c1CSCC(=O)Nc1nc2c(F)cc(F)cc2s1,active: 50.1 µM
21,CN(Cc1ccc2nonc2c1)Cc1nc(CC2CC2)no1,inactive
22,O=C1c2ccccc2C(=O)c2c([N+](=O)[O-])ccc(O)c21,"inconclusive: 56.2 µM [inhibitor, partial curve]"
23,Cc1ccc(-n2c3nc(=O)[nH]c(=O)c-3cc3c(Cl)cccc32)cc1,inactive
24,CCN1CCN(c2ccc(S(=O)(=O)N3CCCCC3)cc2NC(=O)C(C)Oc2ccc(F)cc2)CC1 (configuration not stated),"inconclusive: 89.1 µM [inhibitor, single point]"

row,SMILES,Potency
1,Cc1cccc(-c2cc3nc(C)c(C)c(NCCCn4ccnc4)n3n2)c1,"inconclusive: 50.1 µM [inhibitor, partial curve]"
2,COCCn1c(C)cc(C2=NNC(=NC3CC3)SC2)c1C,"inconclusive: 39.8 µM [inhibitor, partial curve]"
3,COC(=O)C1=C(C)N(Cc2ccccc2)C(=NCc2ccccc2)N[C@H]1c1ccccc1,"inconclusive: 56.2 µM [inhibitor, partial curve]"
4,CC(C)(C)c1ccc(NC(=O)c2ccccc2)c([N+](=O)[O-])c1,"inconclusive: 28.2 µM [inhibitor, partial curve]"
5,c1ccc2c(OCCCCN3CCCC3)cccc2c1,active: 56.2 µM
6,COc1cccc(CNC(=O)c2cc3n(n2)CCCN(Cc2ccc(C)cc2)C3=O)c1OC,inactive
7,CCOc1ccc(CNC(=O)c2cc3c(=O)n(Cc4cccs4)ccc3nc2C)cc1,"inconclusive: 79.4 µM [inhibitor, single point]"
8,Cc1ccc(C)c(N(CC(=O)NCCSCc2ccco2)S(C)(=O)=O)c1,"inconclusive: 79.4 µM [inhibitor, single point]"
9,COc1cccc(NC(=O)C2CC(=O)n3cnnc3S2)c1 (configuration not stated),"inconclusive: 89.1 µM [inhibitor, single point]"
10,COc1cc2ccccc2cc1C(=O)Nc1ccc(O)cc1,"inconclusive: 79.4 µM [inhibitor, single point]"
11,CCN(CCCNC(=O)COc1cc(=O)n(C)c2ccccc12)c1cccc(C)c1,active: 50.1 µM
12,CC(=O)c1c(C)[nH]c(C(=O)NCCc2ccc(Cl)cc2)c1C,"inconclusive: 79.4 µM [inhibitor, single point]"
13,COc1ccc(Cl)cc1/C=C(\C#N)C(N)=O,"inconclusive: 89.1 µM [inhibitor, single point]"
14,Cc1cc(C(=O)Nn2cnnc2)cs1,"inconclusive: 89.1 µM [inhibitor, single point]"
15,CCN(CC)CCN(C(=O)Cn1nnc(-c2ccc(C)o2)n1)C(C(=O)NC1CCCC1)c1ccc(F)cc1 (configuration not stated),inactive
16,CO/N=C(\C(=O)O)c1csc(NN=C(C)C)n1,inactive
17,CCCCn1c2ccccc2c2nnc(SCC(=O)Nc3ccc(NC(C)=O)cc3)nc21,inactive
18,Cc1ccc(NS(=O)(=O)c2cccc3nsnc23)cc1,inactive
19,Cc1noc(C)c1S(=O)(=O)Nc1ccc(C(=O)NCc2ccccc2)cc1,"inconclusive: 89.1 µM [inhibitor, single point]"
20,C#CCOCCOCCOCCNc1nc(N2CCN(C(=O)CCCCCCCCCCNC(=O)Cn3cc(CCCCCN)nn3)CC2)nc(N2CCN(C(=O)CCCCCCCCCCNC(=O)[C@H]([C@@H](C)CC)n3cc(CCCCN=C(N)N)nn3)CC2)n1,active: 56.2 µM
21,Cc1ccc(S(=O)(=O)NCCC(=O)N2CCC(C(N)=O)CC2)cc1C,"inconclusive: 89.1 µM [inhibitor, single point]"
22,Cc1ccc(-c2nn(-c3ccccc3)cc2/C=C2\SC(=S)N(CC(=O)O)C2=O)cc1,active: 22.4 µM
23,CSC1=C(C#N)C2(CCCC2)C(C#N)=C(N)N1,inactive
